Test results published in publication PMC4336329 (PLoS ONE, 2015).
In all, about 310,000 compounds went through this assay and about 2,200 (0.71%) showed an effect of 50% or more. The effect is printed as a negative number. The list shows a part of the results.

target: human ether-à-go-go-related gene (hERG) potassium channel (human, UniProt Q12809); assay: primary screen, population patch clamp on CHO cells stably expressing hERG
Sequence (Q12809 whole entry, looked up): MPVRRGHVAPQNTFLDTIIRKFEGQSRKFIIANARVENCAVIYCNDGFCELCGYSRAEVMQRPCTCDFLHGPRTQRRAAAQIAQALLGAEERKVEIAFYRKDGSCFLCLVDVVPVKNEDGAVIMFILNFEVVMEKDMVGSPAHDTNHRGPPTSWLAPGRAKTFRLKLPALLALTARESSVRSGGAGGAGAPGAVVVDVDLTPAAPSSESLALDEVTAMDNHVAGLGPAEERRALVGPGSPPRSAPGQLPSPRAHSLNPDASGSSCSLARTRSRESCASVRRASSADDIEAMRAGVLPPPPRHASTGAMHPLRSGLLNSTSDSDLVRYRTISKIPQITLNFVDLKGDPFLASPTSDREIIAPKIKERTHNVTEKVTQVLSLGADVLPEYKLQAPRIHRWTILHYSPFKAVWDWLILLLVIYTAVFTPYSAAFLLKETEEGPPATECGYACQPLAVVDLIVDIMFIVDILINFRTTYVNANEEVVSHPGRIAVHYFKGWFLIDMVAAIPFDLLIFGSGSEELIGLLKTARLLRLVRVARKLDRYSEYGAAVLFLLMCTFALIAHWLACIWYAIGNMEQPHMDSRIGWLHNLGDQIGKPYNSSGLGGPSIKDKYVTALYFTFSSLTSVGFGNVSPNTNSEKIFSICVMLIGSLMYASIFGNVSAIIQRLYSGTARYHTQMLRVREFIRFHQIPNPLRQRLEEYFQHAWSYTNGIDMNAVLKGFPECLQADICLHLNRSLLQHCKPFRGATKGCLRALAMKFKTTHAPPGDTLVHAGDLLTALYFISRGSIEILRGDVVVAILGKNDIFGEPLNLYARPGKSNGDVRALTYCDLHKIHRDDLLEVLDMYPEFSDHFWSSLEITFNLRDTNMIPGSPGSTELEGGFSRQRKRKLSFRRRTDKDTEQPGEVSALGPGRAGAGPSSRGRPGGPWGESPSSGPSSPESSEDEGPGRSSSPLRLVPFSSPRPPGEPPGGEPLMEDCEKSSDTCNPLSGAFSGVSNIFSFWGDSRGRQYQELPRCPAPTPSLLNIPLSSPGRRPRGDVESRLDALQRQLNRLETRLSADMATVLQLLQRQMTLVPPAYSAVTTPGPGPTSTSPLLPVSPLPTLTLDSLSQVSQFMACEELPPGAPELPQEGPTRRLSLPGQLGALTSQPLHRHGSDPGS

Row | SMILES | hERG current change (%, negative = inhibition) at 1uM [%]
1 | O=C(c1ccccc1S(=O)(=O)NCC(O)COc1ccc([N+](=O)[O-])cc1)N1CCCCC1 (stereo not shown) | -12.5
2 | COc1ccccc1CNC(=O)C/C(C)=N/NC(=O)COc1ccc(C)cc1Br | -14.4
3 | O=C(CN1C(=O)CSc2ccccc21)N/N=C/c1ccco1 | 8.45
4 | Cc1ccccc1NC(=O)c1ccc(C)c(S(=O)(=O)NCc2cccnc2)c1 | 16.7
5 | Cc1coc2c(C)c3oc(=O)c(CCC(=O)N4CCC(C(=O)NCCCC(=O)O)(c5ccccc5)CC4)c(C)c3cc12 | 9.81
6 | COc1cc2c(cc1OC)CN(C(=O)c1cccc([N+](=O)[O-])c1)CC2 | 15.2
7 | O=C1NC(=O)C(CCc2ccncc2)(C2CCCCC2)C(=O)N1 | 11.2
8 | CCOc1ccc(-c2csc(NC(=O)c3ccc(S(=O)(=O)N4CCc5ccccc5C4)cc3)n2)cc1 | 13.8
9 | CCN(Cc1ccccc1)C(=O)CCS(=O)(=O)c1ccc2c(c1)n(C)c(=O)c(=O)n2C | 5.12
10 | CC1CCCCN1C(=O)Cn1c(=O)oc2cc(S(=O)(=O)N3CCCCC3)ccc21 (stereo not shown) | 17.4
11 | C=CCn1c(O)c(C(CC)=NCc2ccc3c(c2)OCO3)c(=O)[nH]c1=O | 13.1
12 | O=C(Cc1cccs1)NCc1ccccc1 | 5.91
13 | Cc1cc(N2CCCCC2C)nc(-c2ccccc2O)n1 (stereo not shown) | -19.4
14 | O=C(CCl)Nc1c2c(nn1-c1ccccc1)CSC2 | 2.65
15 | COc1ccc(S(=O)(=O)NNC(=O)c2sccc2-n2cccc2)cc1 | 6.85
16 | C=CCn1c(SCC(=O)Nc2cc(C)cc(C)c2)nnc1-c1cnccn1 | -13.8
17 | CCc1ccccc1NC(=S)Nn1cnnc1 | 13.5
18 | CCc1sc(N(C(=O)Cc2ccccc2)c2ccccc2F)nc1-c1ccc(C)cc1 | 27
19 | COC(=O)Nc1c(-c2ccccc2)nc2ccc(C)cn12 | 3.16
20 | COc1ccccc1NC(=O)Nc1cccc(C(=O)O)c1 | 17.1
21 | Cn1c(SCc2cccnc2)nc2cccnc21 | 3.12
22 | COc1ccc(C2=NS(=O)(=O)N(C)C(C(=O)NC3CCCCC3)=C2)cc1 | 4.77

Row | SMILES | hERG current change (%, negative = inhibition) at 1uM [%]
23 | COc1cc(OC)c(C(=O)OCC(=O)Nc2c(C)n(C)n(-c3ccccc3)c2=O)cc1OC | 11
24 | COc1ccc(NC(=S)N(CCN(C)C)Cc2cccs2)cc1 | 2.03
25 | C=C(C)C1CCC2(C(=O)O)CCC3(C)C(CCC4C5(C)C(C=O)C(O)C(C)(C)C5CCC43C)C12 (stereo not shown) | 5.38
26 | CC(C)C(NS(=O)(=O)c1ccccc1)C(=O)N1CCN(C(=O)c2ccco2)CC1 (stereo not shown) | 7.7
27 | CSc1ccc(S(=O)(=O)N(CC(=O)NCc2ccccn2)c2ccc(C)cc2)cc1 | -1.15
28 | Cc1ccc(NC(=O)C(C)Sc2nnc(C)n2C)cc1 (stereo not shown) | 15
29 | Cc1cc(OCC(=O)NCC2CCC(C(=O)O)CC2)c2c(C)c(Cc3ccccc3)c(=O)oc2c1 (stereo not shown) | 12.4
30 | COc1ccc2oc(C(=O)OCC(=O)N(C)c3ccccc3)c(C)c2c1 | 12.5
31 | O=C(NNC(=O)C(c1ccccc1)c1ccccc1)c1ccccn1 | 4.49
32 | Cc1[nH]c2ccccc2c1N=Nc1ccccc1C(=O)O | 11.4
33 | O=C(CSc1nc2ccccc2n1CC(=O)N1CCCC1)Nc1nccs1 | -12.7
34 | CC(=O)N1CCCN(Cc2cn(-c3cc(C)ccc3C)nc2-c2ccccc2)CC1 | -14.1
35 | Cc1cc(OCc2nn[nH]n2)c2c3c(c(=O)oc2c1)CCCC3 | 7.59
36 | Cc1ccc(S(=O)(=O)NC(=O)Nc2ccc(OC(F)F)cc2)cc1 | 3.96
37 | CCn1c(=O)cc(SCC(=O)N2CCN(c3ccccc3OC)CC2)c2ccccc21 | -6.97
38 | CCCCn1c(N)c(N(CCOC)C(=O)c2ccc(-c3ccc(Cl)cc3)o2)c(=O)[nH]c1=O | 6.7
39 | CS(=O)(=O)c1ccc(-c2nnc(NC(=O)C3=COCCO3)o2)cc1 | 6.56
40 | CCCN(CCC)CCNC(=O)C(NS(=O)(=O)c1ccc2c(c1)CCC(=O)N2)c1ccccc1 (stereo not shown) | 5.19
41 | O=C(c1ccc(Cl)nc1)N1CCC(Cc2ccccc2)CC1 | 5.19
42 | CCn1cc(C(=O)NC(C)C2CC3CCC2C3)cn1 (stereo not shown) | 6.6
43 | NC(=O)[C@@H]1CC2(CC(c3cccc(NC(=O)[C@H]4CCC(=O)N4)c3)=NO2)CN1C(=O)c1ccc(Cl)cc1 (stereo partly shown) | 7.6
